Whole data set: some 4,500 sequences, median “median log2 fold change of GCK-ALFA target abundance (FLAG IP / Myc IP barcode read proportion)” near 0.078, cut for the lowest 2% near -0.6. Some of the results follow.

The results in this text go back to the supplement of paper PMC12632987.

First the molecules themselves.
B1: GBRAP_52_5932 (protein)
chain: MEEEIEEDVERLVELVEAGKLEEARKLAKEIVETYSEEELEKFIERLAELARTAPLERLPYILEAAEILAEEMERAGRDEALADDLLARVAAAAYENELA
B2: GBRAP_95_7059 (protein)
chain: DDLVEEAEALFDTAADLAEAGFEEQAAKAVKALADALKELGGNKVDAKVDRETALRLARIAAETLDADDARAVVDLLGAAVGDPETAAELRAILEAAEAA
B3: GBRAP_166_4991 (protein)
chain: SDEELLEETKKYIDEAFERAKTLSPEERDEEIAEANLKVNDAIEELKDLEKAKELAVYYVEKLVELLGSAEAARRRIVWPLDVPDEVIDAAEERLRELAE
B4: GBRAP_160_4113 (protein)
chain: KEKLVEAAEENAEDVKETIKIIEDLSPEEAGNLAIVTLGQVLLDASEFGEEFEEIEKLAEEAIEEIKKTAEEDPEKLKEVSKEQLEKLRKALEEKAKELK
B5: GBRAP_9_7108 (protein)
chain: KEEFAKKVKEIIKDAAEEIKKVVPEELKPLVDELTEKILKEIEKLAKDKNTTKEEIAEAAKKGLKELAKELSKKLSPEIAAAVEAIVLTAIEEIDELAEE
B6: GBRAP_39_5717 (protein)
chain: EEEEEAENIFSYYEAVGAAEMYKRGISLEELFERTLAEARELAADDPELLAALEELEELALKAGDEAKLAATGIMVRLVEGAPREEVLADLKKLIAYLKS
B7: GBRAP_139_3758 (protein)
chain: MKEEEIKKKAEEFFEEMKKDFEKAVEKTAEYLASLSDEERLKFTEALAKIAAKEGEEFAEKFKEALVEKIKELTKDEDDALAVEGTMETAIAREEMKKEA
B8: GBRAP_153_3941 (protein)
chain: EEERKKRLEEAKELADKIEKEGLPEELLLEFARLVYSLDEEEKLEVAKYINTLSPETVYAIFLTLATKVPFTTEELLAMITELNEENEAAALEALVEAQK
B9: GBRAP_160_4607 (protein)
chain: SEKLEELKKFVKEEFEEAKELIVGQTTEERATIVDVTFGQIIIEAIELEAVSDETIEKFAEIGDETVATILSNPDLTDEEIKALIDEAEEKILKLIEEEE
B10: GBRAP_80_6765 (protein)
chain: DRAALEAALAELEKLLPDLAPAVRAMVEKALALGVPAALLARFVKAAVELARKDKEKAREIITEMIEEVNELIAEGDKEGVIATIADYEGEMLLAVEETE
B11: GBRAP_160_4416 (protein)
chain: EETIKEVEELLDETKELVLELVEEGERENALAAARVGAGEILLYLDEKEEVSEEAREEVDKVLDELIAELEANANATPEEVRKMLDEAKEKVLEILKKHT
B12: GBRAP_26_5437 (protein)
chain: LEEVEREAIRRLEEVAARIGDPEKAAAALAEAITLLHDFVETAEEKNLSPEELDELAEEEVEELREFLEDLGLSEELREELVETFREELERIKEALLKER
B13: GBRAP_39_5704 (protein)
chain: SMEEEAEEIFSYLEALGAKLAVERGLDMEEVEKETEELAKEVIEKYPELKELVEELLKLAKEKGDTAVLAAYGLLELIKEGLPLEEAREKLELLIKYLKK
B14: GBRAP_11_2749 (protein)
chain: KKEELKKIAELAEEAAKLLEALIKEGVDNEELIKKLKEKVKELEELVKKHGDESLKKLVEILKEEIEKALEDPENAEQYFKLALATARVLAGQVLLDIEE
B15: GBRAP_11_2716 (protein)
chain: KKEKLKELAKKAEELAKEVEKLIKEGPKEEELKKLKEEVKKLAEEAKKAGVDESIVKTLEIAAEDIAKAIEDPENVVEHLNNAKAALQVAAGDLLLEAEE
B16: GBRAP_52_6059 (protein)
chain: MEERIEELARRIAEAIAAGDLERALELLRRAIKELSVEEIRRMLELAAERVAKLGEEAHERFVELLEEAEELMKEAGISEEEAELIVGDAEAALARAVAA
B17: GBRAP_16_4995 (protein)
chain: DELLAKVEGAAEFAQLLLDAVKDEDPEAAKLVQEALDKLKAAAELLKKGGDKEEVEKELKAALKTLKELLKRYEDKDPELAAIVQTLIDQVKEALELLKK
B18: GBRAP_160_4321 (protein)
chain: SALMEELKKEIEEIAEEAKELIEGESPEQRRTIVKVALGEILLLAIENPEISDELEDKIAEIADAAEAELDANPDLSEEEVKELLEKAVKEILELIEKEE
B19: GBRAP_11_2699 (protein)
chain: KKEKLEELRKLAEELAKVLEELIKEGPDNEELRKKAEELLEKIKKLAEEYGDEGMKTLTKILEELWKKALEDKENRVEYLKEAKATARVLAGQALLEIEE
B20: GBRAP_160_4204 (protein)
chain: GEKVEKIIKELREETEEVIEELDEVSVEEAANFADVEFGSVLMEAVELGEENDEILDVIADAGDEVVEYLKENKDASVEERKEKIREITDKAIEKIKEIA
B21: GBRAP_139_3716 (protein)
chain: SALEEKVKKAKEIVKKYRNDLEKLAKELAKLISEEDDEGALAIARAAAEEMKDWSWEKWEEFVELLSKELKKLGFSEDDILAIEGVLEAVYAKHELAKLE
B22: GBRAP_184_5055 (protein)
chain: AIKERVIEAETEEELEEKLEELEEELKDFKGELILLVRVPEFTEEMVELLMERLKEILEKGYVSSATVGLDGKMSEEVIDLAVKLADEAGIKLVIALEEE
B23: GBRAP_128_3165 (protein)
chain: SPEEIVEEVRELVEKMIEADDEEARELAERIADIFLEADLETAERIAEVIIELLPELSEEKLEILIDVLRERRPEFTPEKQELVAEVMVEAGERLLELEE
B24: GBRAP_52_6072 (protein)
chain: MEELIRELAERITAAIAAGDLEEALALLRKAIEELSKEEIRELLVLTARRVAGLSEEAHERFVDLMVEVEDLLIEAGISEEDALLIVGDAEAELAREVAA
B25: GBRAP_128_3170 (protein)
chain: SSEEIVEEVRKLLKEMLTASPEEQRKLAEEIVELFGKADLETAEKIAEVIIELAPEFTEEQLEILADVLREKMPELDPEKQELAAEVIVELGERILELEE
B26: GBRAP_137_3653 (protein)
chain: AKININIEIDGDFADITIKADTKELAELAADILAEVADEEGVAYAISLDEENKTVYADLLGEREKIRRAIEEFVKRLSEKADVNVTLTEDGKTTKETLKK
B27: GBRAP_35_5582 (protein)
chain: DDVEIILETARDFAEAAIEALKGDDLEEAIRMTEAFVRAAELAIEDLKNDLEALKELAKLLEEVLKAAKEYASDNPEMQKNIERLEELLKRAKELAKKVE
B28: GBRAP_11_2664 (protein)
chain: KEETLKKALELAKELAEALKKLIEEGIDNEELIEKAEELLEELEKLAKEKLSKALQSDVEVMKELWEEFLEDEENRLEYAEQLLAAARVLAGNLELELEE
B29: GBRAP_128_3333 (protein)
chain: MDEEKVEKVKELVEKIIEADKEEARKLAEEIAELLKEMSLEEVKKAVEEIKKLLPKLSAEKLEILADVLREKLPEFEPEKAEVVADLQVEALNLAVEKEE

Sequence of GABARAP, O95166 (O95166 whole entry, the tested form may be a part): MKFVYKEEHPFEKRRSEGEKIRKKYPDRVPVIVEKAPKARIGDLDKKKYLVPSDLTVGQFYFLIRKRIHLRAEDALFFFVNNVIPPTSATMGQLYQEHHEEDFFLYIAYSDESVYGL

In this assay the target is GABARAP, O95166. Description: median log2 fold change of GCK-ALFA target abundance (FLAG IP / Myc IP barcode read proportion) (log2 ratio); each designed protein is fused to an ALFA-tag nanobody in HEK293 cells to bring the named protein to FLAG-tagged glucokinase (GCK); Myc marks an untargeted standard; higher = target protein stabilised (more abundant). The following applies: target protein: 3xFLAG-MCP-GCK-ALFA reporter; HEK293 landing pad (RPLP). The gist of the method:
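Sequencing of reverse-transcribed, amplified circular RNA barcodes from anti-FLAG and anti-Myc immunoprecipitates provided the readout for an ALFA-nanobody-fused binder library recombined into HEK293 landing-pad cells. Those cells were induced with 2 μg mL^−1 doxycycline, transfected with a plasmid expressing a FLAG-tagged target and a Myc-tagged standard, and lysed after 48 h. Target abundance is the per-binder median log2 ratio of FLAG to Myc barcode read proportions. Only barcodes at a proportion of ≥10^−7 in both replicates and binders with ≥3 barcodes per replicate were kept, with a 10^−6 pseudocount added before the two replicates were pooled.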
Consider B1, for which the “median log2 fold change” value is -0.463. The result for B2 reads 0.0328; that for B3, 0.129. The result for B4 reads 0.161; that for B5, 0.464; that for B6, 0.239. For B7, the “median log2 fold change” value amounted to 0.361. As to B8, the “median log2 fold change” value amounted to 0.148. For the molecule B9, the “median log2 fold change” value is -0.243. As for B10, the “median log2 fold change” value is 0.0581. Take B11: the “median log2 fold change” value is 0.109. The result for B12 reads -0.0854; that for B13, 0.207. In the case of B14, the “median log2 fold change” value is 0.275. The figure for B15 is 0.302. The figure for B16 is 0.0176; for B17 it is 0.0475. The figure for B18 is -0.0253.

In the case of B19, the “median log2 fold change” value worked out at 0.198. As for B20, the “median log2 fold change” value was -0.0853. For B21, the “median log2 fold change” value was 0.146. The result for B22 reads -0.0418; that for B23, -0.105; that for B24, -0.594. In the case of B25, the “median log2 fold change” value was 0.191. As for B26, the “median log2 fold change” value is -0.129. As to B27, the “median log2 fold change” value came out at 0.182. Regarding B28, the “median log2 fold change” value is 0.348. The result for B29 reads 0.156.
